According to the supplement of paper PMC4967469:
Lines with a small IC50 respond at low doses; a limit (>, <) means that the fit lies beyond the doses tested. AUC is the area under the same curve over the 256-fold range up to the top dose, as a fraction; it is 1 without any effect and falls as sensitivity rises. Any top dose called inferred was derived from the fitted curves, not read from the paper.

Assays:
Assay in all cases: Viability of human cancer cell lines after 72 h of drug (GDSC screen)
[1] = compound: COc1cc(N2CCN(C)CC2)ccc1Nc1nc(N)c(C(=O)c2c(Cl)cccc2Cl)s1 [XMD14-99]; details: top dose 10.24 µM; top dose inferred
Protocol: (§1)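 Human cancer cell lines in 384-well plates, medium with 10% serum, drug for 72 h over a 256-fold dose range (nine 2-fold or five 4-fold steps up to the top dose). Adherent lines were fixed and stained with the nucleic acid dye Syto60, suspension lines read with resazurin; signal relative to control wells, capped at 0 and 100%. One two-parameter sigmoid per drug and line, fitted in a mixed model over all curves with the slope shared within a line.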

[2] = compound: Cc1cc([N+](=O)[O-])ccc1NS(=O)(=O)c1cc(Cl)ccc1Cl [FH535]; details: top dose 32 µM; top dose inferred
Protocol: as §1

[3] = compound: O=C(NC1CCNCC1)c1n[nH]cc1NC(=O)c1c(Cl)cccc1Cl [AT-7519]; details: top dose 10.24 µM; top dose inferred
Protocol: as §1

Row | Cell Line | AUC [1] | IC50 [1] [µM] | AUC [2] | IC50 [2] [µM] | AUC [3] | IC50 [3] [µM]
1 | Capan-2 (pancreas, adherent) | 0.974 | > 10.2 | 0.683 | 7.33 | 0.957 | > 10.2
2 | H2803 (mesothelioma, adherent) | 0.965 | > 10.2 | 0.766 | 13.7 | 0.969 | > 10.2
3 | 639-V (bladder, adherent) | 0.99 | > 10.2 | 0.485 | 1.83 | 0.989 | > 10.2
4 | COLO-679 (melanoma, adherent) | 0.977 | > 10.2 | 0.527 | – | 0.642 | 1.66
5 | BFTC-905 (bladder, adherent) | 0.978 | > 10.2 | 0.595 | 3.5 | 0.439 | 0.448
6 | U031 (kidney, adherent) | 0.972 | > 10.2 | 0.689 | 6.92 | 0.696 | 2.33
7 | SKN-3 (head and neck, adherent) | 0.983 | > 10.2 | 0.633 | 5.01 | 0.636 | 1.63
8 | SW900 (lung squamous cell carcinoma, adherent) | 0.985 | > 10.2 | 0.807 | 19.6 | 0.829 | 7.84
9 | UACC-893 (breast, adherent) | 0.979 | > 10.2 | 0.525 | 2.39 | 0.763 | 4.93
10 | JHH-7 (liver, adherent) | 0.988 | > 10.2 | 0.415 | 1.19 | 0.933 | > 10.2
11 | CS1 (bone, adherent) | 0.982 | > 10.2 | 0.691 | 7.35 | 0.684 | 2.24
12 | HCC1954 (breast, adherent) | 0.946 | > 10.2 | 0.513 | 2.18 | 0.377 | 0.276
13 | NCI-H1437 (lung adenocarcinoma, adherent) | 0.963 | > 10.2 | 0.535 | 2.5 | 0.431 | 0.41
14 | FU97 (stomach, adherent) | 0.976 | > 10.2 | 0.412 | 1.14 | 0.823 | 6.29
15 | 769-P (kidney, adherent) | 0.923 | > 10.2 | 0.637 | 4.95 | 0.674 | 2.06
16 | NCI-H1703 (lung adenocarcinoma, adherent) | 0.981 | > 10.2 | 0.6 | 3.99 | 0.83 | 8.47
17 | NCI-H1435 (lung adenocarcinoma, semi-adherent) | 0.987 | > 10.2 | 0.387 | 1.02 | 0.929 | > 10.2
18 | MDA-MB-157 (breast, adherent) | 0.988 | > 10.2 | 0.692 | 7 | 0.892 | > 10.2
19 | NCI-H1048 (small cell lung carcinoma, adherent) | 0.978 | > 10.2 | 0.876 | 26.3 | 0.558 | 0.904

Row | Cell Line | AUC [1] | IC50 [1] [µM] | AUC [2] | IC50 [2] [µM] | AUC [3] | IC50 [3] [µM]
20 | SW1710 (bladder, adherent) | 0.976 | > 10.2 | 0.558 | 2.9 | 0.856 | 8.69
21 | HT-29 (large intestine, adherent) | 0.92 | > 10.2 | 0.661 | 5.58 | 0.547 | 0.861
22 | 8505C (thyroid, adherent) | 0.983 | > 10.2 | 0.57 | 3.15 | 0.578 | 1.06
23 | A375 (melanoma, adherent) | 0.991 | > 10.2 | 0.529 | 2.36 | 0.848 | 5.63
24 | SU8686 (pancreas, adherent) | 0.979 | > 10.2 | 0.876 | > 32 | 0.748 | 3.65
25 | A427 (non-small cell lung carcinoma, adherent) | 0.985 | > 10.2 | 0.184 | 0.222 | 0.815 | 5.71
26 | SU-DHL-5 (B-cell lymphoma, suspension) | 0.914 | 8.24 | 0.63 | 4.15 | 0.226 | 0.133
27 | EPLC-272H (lung squamous cell carcinoma, adherent) | 0.983 | > 10.2 | 0.809 | 19.4 | 0.333 | 0.205
28 | SNU-475 (liver, adherent) | 0.983 | > 10.2 | 0.96 | > 32 | 0.725 | 2.55
29 | PE/CA-PJ15 (head and neck, adherent) | 0.985 | > 10.2 | 0.943 | > 32 | 0.83 | 7.16
30 | SBC-3 (small cell lung carcinoma, adherent) | 0.822 | 5.28 | 0.288 | 0.538 | 0.213 | 0.102
31 | NCI-H2291 (lung adenocarcinoma, adherent) | 0.975 | > 10.2 | 0.908 | > 32 | 0.982 | > 10.2
32 | OE33 (oesophagus, adherent) | 0.976 | > 10.2 | 0.718 | – | 0.835 | 8.62
33 | NCI-H650 (lung adenocarcinoma, adherent) | 0.983 | > 10.2 | 0.861 | 31.6 | 0.594 | 1.19
34 | NCI-H661 (large cell lung carcinoma, adherent) | 0.972 | > 10.2 | 0.59 | 3.72 | 0.675 | 2.2
35 | SW1463 (large intestine, adherent) | 0.974 | > 10.2 | 0.589 | 4.16 | 0.944 | > 10.2
36 | KON (head and neck, adherent) | 0.987 | > 10.2 | 0.657 | 5.41 | 0.95 | > 10.2
37 | HSC-3 (head and neck, adherent) | 0.985 | > 10.2 | 0.579 | 3.19 | 0.609 | 1.22
38 | Hep 3B2_1-7 (liver, adherent) | 0.982 | > 10.2 | 0.445 | 1.41 | 0.975 | > 10.2
